# According to a collection of fitness landscapes (doi:10.1016/j.celrep.2020.107928):
# Whole data set: some 81,000 sequences, median “one-hybrid fitness for binding NBS DNA” near -0.1, cut for the highest 2% near 0.36. The list shows a part of the results.
# B1: Caulobacter ParB omega fusion; a variant is named by its letters at X, in order, B8GW30 (parent)
# chain: MESVVVGEPGMSEGRRGLGRGLSALLGEVDAAPAQAPGEQLGGSREAPIEILQRNPDQPRRTFREEDLEDLSNSIREKGVLQPILVRPSPDTAGEYQIVAGERAWRAAQRAGLKTVPIMVRELDDLAVLEIGIIENVQRADLNVLEEALSYKVLMEKFERTQENIAQTIGKSXSHVANXMRLLXLPDEVQSYLVSGELTAXHARAIAAAADPVALAKQIIEGGLSVRETEALARKAPNLSAGKSKGGRPPRVKDTDTQALESDLSSVLGLDVSIDHRGSTGTLTITYATLEQLDDLCNRLTRGI
# Variants of: B1
# Test: one-hybrid fitness for binding NBS DNA (the Noc-binding site; scaled: cognate 1, non-cognate 0); higher = stronger binding
# Settings: with NBS DNA site
# Method in brief: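 Fitness here means the log change in variant-to-wild-type read ratio between plasmids sequenced before and after selection. That scale was set so cognate equals 1 and non-cognate equals 0. The selection was a bacterial one-hybrid screen of Caulobacter ParB libraries, four specificity codons randomised, in E. coli USO carrying a HIS3 reporter with the site 19 bp from the promoter, grown 48 hours at 37°C on M9-minus-histidine with 0.1 mM IPTG and 5 mM 3-AT.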
row,Variant,one-hybrid fitness for binding NBS DNA
1,WTAR,≤ 0.2
2,SDYT,≤ 0.2
3,SRVM,≤ 0.2
4,YLPR,≤ 0.2
5,ERVN,≤ 0.2
6,QADQ,≤ 0.2
7,AGLT,≤ 0.2
8,LVYM,≤ 0.2
9,IRRM,≤ 0.2
10,NDTT,≤ 0.2
11,PRPM,≤ 0.2
12,SSCV,≤ 0.2
13,TMGD,≤ 0.2
14,QQGC,≤ 0.2
15,IPDA,≤ 0.2
16,SQTC,≤ 0.2
17,YYCL,≤ 0.2
18,DRYP,≤ 0.2
19,YSHL,≤ 0.2
20,VGIG,≤ 0.2
21,YRYF,≤ 0.2
22,VSLS,≤ 0.2
23,VNPD,≤ 0.2
24,TRWF,≤ 0.2
25,LLYP,≤ 0.2
26,QYWS,0.204

row,Variant,one-hybrid fitness for binding NBS DNA
1,EQLG,≤ 0.2
2,KRKN,0.272
3,WVDV,≤ 0.2
4,QFHS,0.208
5,TNNC,≤ 0.2
6,DPCG,≤ 0.2
7,HATF,≤ 0.2
8,VRYW,≤ 0.2
9,WKLY,≤ 0.2
10,HIIV,≤ 0.2
11,LYFQ,≤ 0.2
12,VWLK,≤ 0.2
13,LMSR,≤ 0.2
14,PTCP,≤ 0.2
15,HFVS,≤ 0.2
16,GAYG,≤ 0.2
17,PVKC,≤ 0.2
18,YPPQ,≤ 0.2
19,TVVL,≤ 0.2
20,RNAL,≤ 0.2
21,HYET,≤ 0.2
22,LPCS,≤ 0.2
23,RKTS,0.583
24,KRDF,≤ 0.2
25,QIVV,≤ 0.2
26,RSCM,≤ 0.2

row,Variant,one-hybrid fitness for binding NBS DNA
1,YLNS,≤ 0.2
2,ERTI,≤ 0.2
3,DHNS,≤ 0.2
4,VYPT,≤ 0.2
5,HMHT,≤ 0.2
6,RKSL,≤ 0.2
7,QRST,0.772
8,YGER,≤ 0.2
9,CGQV,≤ 0.2
10,MQCR,≤ 0.2
11,FRNR,≤ 0.2
12,YPHC,≤ 0.2
13,TNCL,≤ 0.2
14,QRCI,0.286
15,WQLR,≤ 0.2
16,PHIR,≤ 0.2
17,ARDV,≤ 0.2
18,CREV,≤ 0.2
19,PFFG,≤ 0.2
20,FMPS,≤ 0.2
21,QYYR,0.466
22,HYGG,≤ 0.2
23,WLHL,≤ 0.2
24,ASLH,≤ 0.2
25,YCKG,≤ 0.2
26,QVCY,≤ 0.2

row,Variant,one-hybrid fitness for binding NBS DNA
1,FGKG,≤ 0.2
2,KYRT,0.345
3,MQHS,≤ 0.2
4,AYIR,≤ 0.2
5,KPQR,≤ 0.2
6,EQIW,≤ 0.2
7,DLGR,≤ 0.2
8,RLLT,0.337
9,NELD,≤ 0.2
10,GVKS,≤ 0.2
11,ISFC,≤ 0.2
12,FMTS,≤ 0.2
13,TIRC,≤ 0.2
14,GSEV,≤ 0.2
15,DSKT,≤ 0.2
16,IERG,≤ 0.2
17,PHRY,≤ 0.2
18,IEPP,≤ 0.2
19,EYKR,≤ 0.2
20,VQKC,≤ 0.2
21,DKDC,≤ 0.2
22,DHPE,≤ 0.2
23,TPRT,≤ 0.2
24,QRIM,0.214
25,ISRC,≤ 0.2
26,GMVD,≤ 0.2

row,Variant,one-hybrid fitness for binding NBS DNA
1,SSQG,≤ 0.2
2,YPNM,≤ 0.2
3,SFQL,≤ 0.2
4,VMNW,≤ 0.2
5,PVHN,≤ 0.2
6,RWGS,≤ 0.2
7,GPKF,≤ 0.2
8,NLSL,≤ 0.2
9,LMDN,≤ 0.2
10,TAMK,≤ 0.2
11,CTKV,≤ 0.2
12,REMF,≤ 0.2
13,IQWS,≤ 0.2
14,DDYT,≤ 0.2
15,APPY,≤ 0.2
16,KRVF,≤ 0.2
17,AKIQ,≤ 0.2
18,FFLV,≤ 0.2
19,KRSG,≤ 0.2
20,PNSP,≤ 0.2
21,EQAR,≤ 0.2
22,KESR,≤ 0.2
23,KSHC,≤ 0.2
24,AAFN,≤ 0.2
25,RRIA,0.552
26,FWLF,≤ 0.2

row,Variant,one-hybrid fitness for binding NBS DNA
1,RNYQ,≤ 0.2
2,YALT,≤ 0.2
3,IHYC,≤ 0.2
4,AWVS,≤ 0.2
5,MLKG,≤ 0.2
6,EKQG,≤ 0.2
7,PSWG,≤ 0.2
8,PTFM,≤ 0.2
9,QTVI,≤ 0.2
10,FVTS,≤ 0.2
11,HGPS,≤ 0.2
12,VDSL,≤ 0.2
13,MTQR,≤ 0.2
14,CGNW,≤ 0.2
15,ELRQ,≤ 0.2
16,GECF,≤ 0.2
17,ELLC,≤ 0.2
18,VVPE,≤ 0.2
19,PVYD,≤ 0.2
20,LLRA,≤ 0.2
21,QSPG,≤ 0.2
22,SHSS,≤ 0.2
23,NCGC,≤ 0.2
